Source: PubChem BioAssay AID504832 (National Center for Advancing Translational Sciences (NCATS), 2011)
Among all 310,000 compounds or so, about 18,000 (5.8%) were called active. The inconclusive results got no clear call from the source; some entries with a clear call stand among them for comparison. The call rests on the fitted dose curve; in most records, active means well fitted inhibition curve with a large enough effect; inconclusive means small, poorly fitted or top-dose-only effect, or another doubt; inactive means no such curve, though single readings can be large or run the other way. No potency is given beside an inconclusive call; the fits are too rough.

assay: Primary qHTS for delayed death inhibitors of the malarial parasite plastid, 48 hour incubation; details: P. falciparum luciferase growth in erythrocytes; series mostly up to 28.7 µM
In short: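 Here the parasites carry a stable luciferase gene and grow inside erythrocytes in Albumax-based RPMI medium with compound for one erythrocytic cycle. Activity is scored as loss of luminescent signal.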
Potency means the concentration at half of the fitted maximal effect; tags describe the fitted curve by direction and shape.

Row | SMILES | Potency
1 | CCOC(=O)c1cc(-c2cc(OC)c(OC)c(OC)c2)nc2c1c(=O)[nH]c(=O)n2Cc1ccccc1 | inconclusive [inhibitor, partial curve]
2 | O=C(COc1coc(CN2CCc3ccccc32)cc1=O)N1CCCCC1 | inconclusive [inhibitor, partial curve, poor fit]
3 | COc1ccc(-n2nc(C(=O)NCC(=O)NCCCN3CCCCCC3)c3ccccc3c2=O)cc1Cl | inconclusive [inhibitor, single point]
4 | COc1cc(OC)cc(Oc2ccc(S(=O)(=O)N3CCCCC3)cc2[N+](=O)[O-])c1 | active: 8.28 µM
5 | Cc1cccc(-c2nc(CN3CCCC(C(=O)NC4CCCCC4)C3)c(C)o2)c1 (stereo not drawn) | inconclusive [inhibitor, single point]
6 | COc1ccc(C(=O)c2cnc[nH]2)cc1 | inactive
7 | CCOC(=O)c1c(/N=C/N(C)C)sc(/C=N/Nc2ccccc2)c1-c1ccccc1 | active: 14.7 µM
8 | Cc1ccc(S(=O)(=O)N2CCC(C(=O)NC3CCCC3)CC2)cc1Cl | inconclusive [inhibitor, full curve]
9 | CCc1ccc(C(C(=O)NC2CCCC2)N(CCOC)C(=O)CCC(=O)Nc2cc(C)on2)cc1 (stereo not drawn) | inactive
10 | FC(F)(F)c1ccc2c(c1)NP(=S)(N1CCOCC1)c1nccn1-2 (stereo not drawn) | inconclusive [inhibitor, partial curve]
11 | Cc1ccc(-c2cc(C(=O)N3CCN(c4ncccn4)CC3)c3cc(Br)ccc3n2)o1 | inconclusive [inhibitor, single point]
12 | Cc1ccc(OCc2nc(C#N)c(N3CCCCC3)o2)cc1 | inconclusive [inhibitor, partial curve, poor fit]
13 | COc1ccc(S(=O)(=O)c2cnc3ccccc3n2)cc1 | inconclusive [inhibitor, full curve, poor fit]
14 | CCn1c(CNC(=O)c2cccs2)nnc1SCC(=O)Nc1cc(Cl)ccc1C | inconclusive [inhibitor, partial curve, poor fit]
15 | Cn1c(C(=O)OCC(=O)NCc2cccs2)cc2sccc21 | inconclusive [inhibitor, single point]
16 | COc1cccc(C2C=C(c3ccc(Br)s3)Nc3ncnn32)c1OC (stereo not drawn) | inconclusive [inhibitor, single point]
17 | CSc1ncccc1C(=O)Nc1ccc2c(c1)OCO2 | inconclusive [inhibitor, single point]
18 | CCn1c(Oc2cccc(Br)c2)nc2c1c(=O)n(C)c(=O)n2C | inconclusive [inhibitor, partial curve]
